Whole data set: some 33,000 sequences, median “E-score (-0.5 to 0.5)” near -0.054, cut for the highest 2% near 0.39. The list shows a part of the results.
target: Ylr278c (UniProt Q05854); experiment: PBM E-score (8-mer binding enrichment) (E-score (-0.5 to 0.5)); higher = stronger / more preferred TF binding; most listed sequences are background and not binding sites; settings: protein concentration: 200 nM; construct: GST-DNA-binding domain
Procedure: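 Universal 'all 10-mer' protein binding microarrays (Agilent AMADID 015681) probed with GST-tagged S. cerevisiae TFs (full-length or DBD) made by in vitro transcription/translation (PURExpress), about 100-200 nM. Bound TF was detected with fluorescent anti-GST. Each ungapped 8-mer (which stands for itself and its reverse complement) is scored by the PBM enrichment score (E-score), a modified Wilcoxon-Mann-Whitney statistic from -0.5 to +0.5, computed with the Universal PBM Analysis Suite. Scale: above 0.35 generally sequence-specific binding.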

Sequence	PBM E-score
CGGACACC	0.291
AGCGGAGC	0.381
GTCCGACA	0.393
GGGCGTTA	-0.101
TAGTCTGA	-0.354
ATGATTTA	-0.121
ACACCGAC	0.26
GGCAAATA	0.194
CATCGGGA	0.252
CAGGAGGG	-0.289
GTCCCATA	-0.278
CCGCCGCA	0.266
CTCTCATC	-0.17
CCCGGATA	0.351
CGTCCACA	-0.0859
CGGATCAA	0.315
CATAATTA	-0.156
CTCCGAGC	0.439
AAGATGTA	-0.224
ACGGGTTC	-0.0562
ACCCTAAT	-0.3
GGCTCTAC	0.0543

Sequence	PBM E-score
TAAGACAA	-0.0566
GCAACCAA	-0.0483
CTTCCCAC	-0.0691
GGAACACC	0.116
AGAACTAA	0.0423
ATCGACGG	0.167
GACCCTCC	0.127
TCAACGCA	-0.183
GACGGTGA	0.0974
CGTAGAGC	-0.0798
CCATTCGA	-0.144
CGTTGCCA	-0.0625
GGGCTGAA	-0.0804
ATCGATTC	-0.0981
AGAGATAA	-0.0878
CACACACG	0.119
ATCGGCTG	0.131
CGTGGACC	0.0705
AGTTTTTC	0.239
AACGCAGA	-0.0288
GTGTCCCA	-0.0522
GGAGGCAA	0.187

Sequence	PBM E-score
CAGCGAAC	-0.0775
AGGTCGAG	-0.255
GCGCAATA	0.0889
ATCAGGGG	-0.235
GGCACATA	-0.052
AGAAGGGC	-0.138
CGGGCACG	0.235
AACCTTCT	-0.0926
GTAATATA	-0.0178
ACGTCGCA	-0.233
ACTGGGCA	-0.177
GTATGCTA	-0.00323
CCGCTAGG	0.174
CACCACAA	-0.0336
GTAAGAAC	-0.0575
CTCGTAAC	-0.0333
AATTTCAA	-0.104
ACAAACCT	-0.208
CCATCAGG	-0.0717
ATATAAGG	0.151
TATCACGA	-0.115
GATTTTGC	-0.0482

Sequence	PBM E-score
GCGACACC	0.019
ACCCCTTC	-0.0977
CATCGCCG	0.291
CCACCGGC	0.295
CGTCTTTA	0.112
CCCTTGCC	-0.208
ATTCTTAA	-0.154
CCGGGAAC	0.344
CAGCACTC	-0.0477
ATCGGGTC	0.184
CGTTAGAG	-0.0267
ATGTGGTA	-0.0913
GCGAGAGA	-0.162
ACTGATCT	-0.0821
GAGGACAC	0.0783
ACCTCCAC	0.0767
GCTATCCA	0.0641
GCGGCAAC	0.0917
ACATGCGA	-0.185
TCGTCAGA	-0.176
